Results on one substance are retold here after patent US9663561B2, “Methods of treatment of cancer using SRC-modulating peptides” (The University of Toledo, priority 2006, dated 2017).

The subject of assay [1] is human prostate cancer cell (DU145). Briefly: DU145 prostate cancer cell growth. To be noted: peptide added to DU145 cells. Format: cell-based. As for the experimental part: 2.0 μg of pYFP-C1 or pYFP-C1-ND1 plasmid was transfected into DU145 cells with Lipofectamine 2000. After 48 hr, cell numbers were counted with Trypan Blue Staining
In the next assay the target is T1, Src (Homo sapiens, UniProt P12931).
T1 construct: purified recombinant full-length Src from Upstate Biotechnology was used; purchased Upstate Biotechnology (Lake Placid, N.Y.)
Briefly: Src pY418 autophosphorylation / activity of purified recombinant Src. Format: biochemical. To be noted: FIG. 29B. As to the method: The Src kinase activity was assayed using a commercial kit (Haas et al., 2000). To determine how Na+/K+-ATPase affects Src kinase activity, the purified Src (4.5 U) was incubated with 5 μg of the purified Na+/K+-ATPase in the Src assay buffer for 30 min at room temperature. Afterward, both control Src or the Na+/K+-ATPase-bound Src were exposed to 10 μM ouabain and Src kinase activity was determined. In other experiments, the Src pY418 was measured by anti-pY418 antibody to indicate Src activation (Ma et al., 2000). To do so, the purified Src (4.5 U) was incubated with different amounts of the purified Na+/K+-ATPase or GST-Na+/K+ATPase constructs in phosphate-buffered saline (PBS) for 30 min at 37° C. Afterward, 2 mM ATP/Mg2+ was added. The reaction continued for 5 min at 37° C. and was stopped by addition of SDS sample buffer.
The reaction was stopped by adding 5× loading buffer. pY418 was probed to measure Src activation.

As to “TAT-P3: TAT-tagged Src peptide inhibitor P3, cell membrane permeable (GRKKRRQRRRPPQSATWLALSRIAGLCNRAVFQ)”, the DU145 cell growth entry in assay [1] is reported as “inhibited cell growth”. Also, in the assay with Src, the “Src inhibition in vitro” value is on record as “inhibit Src in vitro”.
